This note sets out measurements from US20240156864A1 (UNIVERSITY OF NORTH CAROLINA AT CHAPEL HILL, published 2024).

In this assay the target is T1, CAR19.BBζ (human, UniProt P01732 138-206; Q07011 214-255; P20963 fragment).
T1 construct: Expressed in human T cells (or Jurkat cells) and pulled down from lysate; also called CAR.BBζ; CAR19.BBC
Put plainly: co-IP with anti-CAR19 Ab from CAR-T cell lysate, LC-MS/MS. The protocol: For Immunoprecipitation (IP), assay, proteins from T cells were extracted in RIPA lysis buffer (Thermo Scientific) supplemented with 1×protease/phosphatase Inhibitors (Thermo Scientific). Equal amount of total proteins was used for IP. Rabbit/mouse IgG (Thermo Scientific) with protein G magnetic beads (Bio-Rad) was used to pre-clear the lysate and anti-CAR19, anti-HA or anti-FLAG Abs were incubated with lysate for 16 hours, and protein G beads were then used for the pull-down. IP products were dissolved in 2× SDS Laemmli buffer for Western blot analysis. […] 2× SDS Laemmli buffer without β-mercaptoethanol was used to dissolve the IP product, and β-mercaptoethanol was supplemented before western blot.
For mass spectrometry (MS) assays, immunoprecipitated samples (3 biological replicates) were subjected to SDS-PAGE and stained with Coomassie blue dye. Lanes for each sample were excised and the proteins were reduced, alkylated, and in-gel digested with trypsin overnight at 37° C. Peptides were extracted, desalted with C18 spin columns (Pierce) and dried via vacuum centrifugation. Peptide samples were stored at −80° C. until further analysis. The peptide samples were analyzed by liquid chromatography coupled to tandem mass spectrometry (LC-MS/MS) in 3 separated experiments using a Thermo Easy nLC 1000 coupled to a QExactive HF or a Waters nanoAcquity coupled to a Thermo LTQ-Orbitrap Velos. Samples were injected onto a PepMap C18 column (75 μm id×25 cm, 2 μm particle size) (Thermo Scientific) and separated over a 90 or 120 min gradient where mobile phase A was 0.1% formic acid in water and mobile phase B consisted of 0.1% formic acid in ACN. The LTQ-Orbitrap Velos was operated in data-dependent mode where the 10 most abundant precursors were selected for CID fragmentation (35% CE). The QExactive HF was operated in data-dependent mode where the 15 most intense precursors were selected for subsequent HCD fragmentation (27 NCE).

B1: LCK (enzyme)
chain: not shown
notes: Endogenous protein from T cell lysate; also called lymphocyte-specific protein tyrosine kinase; LCK kinase
B1: the Area turned out to be 4.48e+08, the Coverage is 34% and the “Peptides (number identified)” value was 13.
